Data: the supplement of paper PMC11417369
± gives the standard deviation of the averaged measurements. The list shows a part of the results.

Test system: PfAP2-LT AP2 domain (GST-tagged)
Assay: gcPBM binding intensity (ln(normalized median fluorescence intensity)); higher = stronger DNA binding
Summary of the method: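 Binding of GST-tagged P. falciparum DNA-binding domains, expressed in E. coli and used at about 25 μg on average, was carried out for 1 h in 1× PBS containing 1% milk, 0.2 mg/ml BSA, 0.5% salmon testes DNA and 0.03% Triton X-100. The target was an Agilent 4 × 180k array of primer-extended double-stranded 36-bp intergenic genomic probes plus negative controls, read with Alexa488 anti-GST antibody at 488 nm. Binding intensity is the highest Masliner-normalised natural-log median intensity across replicate spots of either probe orientation.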

Row | Sequence | gcPBM binding intensity (ln)
1 | GATGATATATATTAGCGTACATGTATATATACCATT [XGTACX_site6404] | 9.05 ± 0.36
2 | AAAATTTCAAATAACACACACTAATATATATCTGTA [CACACA_site4904] | 9.14 ± 0.24
3 | TATTTGTATATATGTGTGCACGTATAATCCATTAAA [GTGCAC_site9569] | 8.97 ± 0.33
4 | TAAATGAGAAGGACTGCACACTAAAATGGAAGGAGA [CACACA_site8449] | 9.18 ± 0.47
5 | GCATAAATCAAACACACACACATATATATATATATA [CACACA_site2422] | 10.3 ± 0.15
6 | AATGAATATAGTACTGAATGTAATTTAAGGTTTTCC [CACACA_negctrl_site1548] | 8.79 ± 0.5
7 | TATAATGGATGCTAGCTGCACTAATAAGCAAAAATA | 8.73 ± 0.54
8 | TATATTAAATATTACACACATACATTTAGTGTCAAA [CACACA_site1990] | 9.02 ± 0.46
9 | AACAAAATAAATGTATGTACATATATATATATATAT [XGTACX_site7974] | 9.74 ± 0.65
10 | ATATATATATCATATTGTACATACTTGTATTTATAT [XGTACX_site2432] | 9.06 ± 0.35
11 | GTGGACGAAATAGTTGTAAATTTATGTGCAAACCTC [XGTACX_negctrl_site564] | 8.92 ± 0.44
12 | TCCTTACCTATTAAAGCATGCTCGAATATATATTTT [TGCATGCA_site53] | 8.88 ± 0.41
13 | TTAATTATATATAAAAGTACTTATTTTTCCATATAA [XGTACX_site3033] | 8.12 ± 0.46
14 | TAATAGGAAATTATAGGTACACATACAAATAAATAA [XGTACX_site3587] | 8.9 ± 0.52
15 | AATAATAATATATGTAGTACACATTTCCATTATGTT [XGTACX_site3708] | 8.86 ± 0.44
16 | AAAAAAAAAAAAAAAACACACATTTCTTTTTCATAT [CACACA_site11] | 8.91 ± 0.45
17 | ATATTAAAAAGAAGTGTGCGCAAAACATTAACTTGA | 9.37 ± 0.42
18 | ATTTATATATTGCCCACACACATGTGATTATTTATA [CACACA_site1714] | 9.28 ± 0.46
19 | AATGGATGGTCCAAATGTACATATATATATATATAT [XGTACX_site4800] | 9.9 ± 0.58
20 | TAAATAAACCTGACTTGTACATGTAAAATAAATATA [XGTACX_site1667] | 8.99 ± 0.57
21 | AGAAAAAATAAAAATAGTACTCAAAAAATTATGAAT [XGTACX_site4908] | 8.6 ± 0.57
22 | AATGGTACATGATACACACACGCACATATATATATT [CACACA_site3425] | 9.56 ± 0.3
23 | ATGTAGATATATATATGTACTAATTAGTAGTTTACG [XGTACX_site6275] | 9.12 ± 0.47

Row | Sequence | gcPBM binding intensity (ln)
24 | ACATAAATAATAAAAACACACATATGTACAGATATA [CACACA_site5112] | 9.16 ± 0.49
25 | AGAAAAAAAAAACACACACACACACCCTCAATATAA [CACACA_site39] | 10.1 ± 0.11
26 | AAATAGATAAACTAAACACACAAAAAAAAAAAAAAT [CACACA_site1179] | 9.13 ± 0.55
27 | TTATATGAAAAAATATGTACGTATAATGAGAAATAT [XGTACX_site8987] | 8.91 ± 0.38
28 | GTTATAAATGCATATACACACATACGTACATACATA [CACACA_site7655] | 9.19 ± 0.35
29 | TCATTAATCAGGTATGCATGCATAACTATTAAAAAT [TGCATGCA_site90] | 8.8 ± 0.4
30 | TCTTTTTTTTTTATTTGTACTTATTTTTTTCAAAAA [XGTACX_site3403] | 8.54 ± 0.52
31 | AAAATAACGAGTCAAACACACATATTTATATTTATA [CACACA_site7050] | 8.95 ± 0.45
32 | TAATATAACTACATAACACACGAAAATATATGAATC [CACACA_site3628] | 9.1 ± 0.43
33 | TTTAATATGAATTTATGTACATATATATATATATAT [XGTACX_site6337] | 9.23 ± 0.54
34 | TATATTAAAAAAAAATGTACATATATATAATATATA [XGTACX_site1935] | 8.59 ± 0.42
35 | ATTTTTATTTTCTTTACACACCACATAACTTTTTTT [CACACA_site7826] | 9.04 ± 0.43
36 | ATATATATATATATATGTACATATATCTACATATAT [XGTACX_site7588] | 9.54 ± 0.46
37 | ACTTTTTAATATTTTAGTACACAGTAATTCTTACTA [XGTACX_site1425] | 8.77 ± 0.51
38 | TATGTAATAAATAGTACACACACACCGATATATATA [CACACA_site8389] | 9.79 ± 0.057
39 | AAAAAAAAAAAATACACACACATATATATATATATA [CACACA_site2224] | 10.1 ± 0.3
40 | TATAATAATATTATAGTGCATATTATTTATATATAA [GTGCAC_site9820] | 8.61 ± 0.42
41 | GATATGTTAAATATATGTACATATATAAACCCAAAC [XGTACX_site6601] | 9.1 ± 0.46
42 | AAAGTAAAAAAAAAAACATGCATACGCTAATTTTTA [TGCATGCA_site301] | 8.39 ± 0.5
43 | AAAAAGTGATTAAAATGTACAAAATGCATAAAAGAA [XGTACX_site6625] | 9.07 ± 0.41
44 | ATTTTAATACTTTTATATTAAATGTAGCACATCATA [XGTACX_negctrl_site273] | 8.48 ± 0.52
45 | CATTTTTTGCTTTCAACACACATACAATATAAATAA [CACACA_site7858] | 8.63 ± 0.41
46 | TTATTTATTTAGTAGTGTACTTTTTATATTTATAAT [XGTACX_site5978] | 8.63 ± 0.55

Row | Sequence | gcPBM binding intensity (ln)
47 | TATCATATAAAACATGCACACATATGTACTCTTATA [CACACA_site9249] | 9.13 ± 0.35
48 | AAAAAATAAGATTGTACACACATAAATTCTTTGTCA [CACACA_site2089] | 8.9 ± 0.48
49 | CGTTCTATTTAGATATGTACTTAAATATATGATCAT [XGTACX_site2936] | 8.73 ± 0.37
50 | TTAATAAAAATATATCCACACACATATATATATATG [CACACA_site8091] | 9.16 ± 0.3
51 | ATCATTTATTTTTTAAAAGTATATATATATATATAT [CACACA_negctrl_site220] | 9.35 ± 0.11
52 | TTTTTTTTTTTTTAAATAATCATACATGTGAAATTG [GTGCAC_negctrl_site328] | 8.27 ± 0.42
53 | AAATATAAGTTTTATTGTACATTATATAGCATATTT [XGTACX_site6618] | 8.71 ± 0.36
54 | ACATATTATAACATATGTACATATATATATATATAA [XGTACX_site5567] | 9.18 ± 0.25
55 | TTTTGACATTAACTTAAAAAATAAATAATTATAAAA [XGTACX_negctrl_site552] | 8 ± 0.34
56 | TATATATATATAAGTGCACACTGAACCAAGAAAATT [CACACA_site5637] | 9.17 ± 0.34
57 | TATGTCTTGTTGTAAAATATTTATTAACAAATTGGC [CACACA_negctrl_site1452] | 8.46 ± 0.32
58 | TTAAAGAATATTTTCACACATAAAAATTTTAATTTA [CACACA_site4290] | 8.04 ± 0.53
59 | TTATAAAACACAAAATGTACAAAAAATTATAATTAA [XGTACX_site6859] | 8.65 ± 0.47
60 | AATATTATTATCTTACCACACACAATCTACGAAAAG [CACACA_site8006] | 9.03 ± 0.33
61 | GCCTATATGTTTAGTTGTACTCCTAATATTATTTGT [XGTACX_site6060] | 9.06 ± 0.39
62 | CAAATTATTTCGAGGTGTACTTTTTTATATTATATT [XGTACX_site8309] | 8.8 ± 0.4
63 | CCTAATTTTTTTAGTTGTACTTTTTTTTTTTTTTAT [XGTACX_site7948] | 8.49 ± 0.54
64 | TATATAAATGGACACACACACACCTTATAATTATTA [CACACA_site6093] | 10 ± 0.38
65 | AATGTGTTCATATATGCACACGCATATATATTATTG [CACACA_site9274] | 9.06 ± 0.35
66 | TTTATAAATTGACACACACACATGTGAACATAAAAA [CACACA_site6978] | 9.37 ± 0.3
67 | AATTATATATTATCATGTACAAATATAGTAATACAA [XGTACX_site6845] | 8.71 ± 0.35
68 | AAAAAAAAAAAAAATAGTACGTAACTATAATTTCCT [XGTACX_site2457] | 8.63 ± 0.47
69 | CTTATACTTCTACATCGTACAAAAGATGGTATAATT [XGTACX_site2698] | 8.71 ± 0.28

Row | Sequence | gcPBM binding intensity (ln)
70 | AAATTATAAGTAAAAAGTACTTAATATATAATAAAC [XGTACX_site6065] | 8.71 ± 0.53
71 | TAACTTAAATAATACATACACACATGTACATACAGA [CACACA_site1594] | 9.02 ± 0.42
72 | TATAATTTTTTTTGGGTGCTTGGGTAAATTTTATTA | 8.82 ± 0.3
73 | CACGAAAAAAAAAAATGTACATAAAAATATGATACA [XGTACX_site2536] | 8.71 ± 0.49
74 | GAAAGAGAAATATATACACACATATTTATATTTTTA [CACACA_site2066] | 8.78 ± 0.41
75 | TCTCATTTCAACAACAGTACATATCTATCTGTGTAT [XGTACX_site6897] | 8.86 ± 0.4
76 | AAAAAAAAAAAAAAAAAAAAAGGACGGATGGATGGA [GTGCAC_negctrl_site527] | 8.87 ± 0.38
77 | ATACGTATATAATATACATGCATATATAGCACATAC [TGCATGCA_site376] | 9.1 ± 0.38
78 | ATAAAAAAAAAAAAAAATGAAGCATCACCGTGTAAT [XGTACX_negctrl_site288] | 8.71 ± 0.47
79 | TTTGTAATAACATATGCATGTTCAAAAAATAAAATA [TGCATGCA_site817] | 8.52 ± 0.42
80 | ACGTTTTATTTTTATTGTACTCACATTGAAATGAAT [XGTACX_site6094] | 9.08 ± 0.42
81 | ATTTTTTTATAAAATTTTTTATATATTAAATATTAT [CACACA_negctrl_site135] | 8.36 ± 0.47
82 | AAAATTGTGCTTTCACGGACACAAGATCGAAATAGA [XGTACX_site4068] | 8.88 ± 0.32
83 | ATTTTTTTTGTAAAAGTGCATATATATATATATATA | 9.77 ± 0.13
84 | ATATATTTATACATTTGTACATATACATATTTCTGA [XGTACX_site3982] | 8.84 ± 0.5
85 | GAAACGTTTTTGAGTAGTACACACACAATAAGGATG [XGTACX_site6809] | 9.31 ± 0.34
86 | ATATAAATATAAACATGTACATATATATATATATAT [XGTACX_site2824] | 9.76
87 | AAATTTATATAAAACAGTACAATTAAAAAAAAAATA [XGTACX_site8015] | 8.64 ± 0.5
88 | ATATATATATATGTGTGTACTTATTTATTTATTTGT [XGTACX_site549] | 9.74 ± 0.18
89 | TTTTCTTAATATTTATGTATATATATAATATGATAT [TGCATGCA_negctrl_site572] | 8.52 ± 0.49
